According to PubChem BioAssay (Tox21):
Where “and” joins values, the source holds several entries; their conditions need not be identical. Identical values can stand only once. The shares of active, inactive and inconclusive entries below differ from those in the screen. For some assays here: Potencies of inconclusive entries are doubtful fits and often do not repeat. Calls of active or inactive are those of the source. Unless noted, calls follow the shape of the dose curve; as a rule, active = well fitted curve in the direction sought with a large enough effect in the repeat runs; inconclusive = weak or mixed curves; inactive = no such curve, though single readings can be large; an effect the other way counts as inactive or inconclusive.

Tests used:
[1] = qHTS assay for small molecule agonists of the p53 signaling pathway (AID 651631; calls by dose curve; also: nearly all actives have a fitted effect of over 15% in size; as to activation: % is scaled to controls: 0 for no effect and ±100 for the full control effect); conditions: HCT-116 p53RE-bla reporter, beta-lactamase FRET ratio, 16 h; activation: at 73.3 µM (top of the series) unless noted
Method in brief: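 Fluorescence intensity from cleaved LiveBLAzer B/G substrate (2 h, room temperature) served as the signal. Beforehand, HCT-116 reporter cells bearing p53 response elements were treated 16 h at 37 °C with DMSO-dissolved compounds.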

[2] = qHTS assay for small molecule disruptors of the mitochondrial membrane potential (AID 720635); conditions: HepG2 mitochondrial membrane potential, Mito-MPS dye ratio
Method in brief: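 HepG2 cells (2,000/well) attached overnight at 37C, then took compound for 1 hr at 37C, 5% CO2. Mito-MPS dye was added for 30 min; fluorescence was read at 490/535 nm (monomers) and 540/590 nm (aggregates).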

[3] = molecular target: Glucocorticoid receptor (Homo sapiens) (UniProt P04150); assay: qHTS assay to identify small molecule antagonists of the glucocorticoid receptor (GR) signaling pathway (AID 720692; active = well fitted inhibition curve with a large enough effect in the signal ratio in the repeat runs, not every such curve was filed as active; inconclusive = weak or mixed curves, or effect the other way; inactive = no such curve, though single readings can be large or run the other way; the % refers to the signal ratio; as to activity change, negative = inhibition: % is scaled to controls: 0 for no effect and ±100 for the full control effect); conditions: GR-bla HeLa, beta-lactamase FRET ratio, dexamethasone-stimulated, 18 h; activity change, negative = inhibition: at 58.5 µM (top of the series) unless noted
Method in brief: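 GR-bla HeLa cells carrying a GRE-driven beta-lactamase reporter received compound after 4 h plating, then dexamethasone (5 nM final). After 18 h at 37C, the FRET substrate was loaded for 2 h at room temperature and fluorescence read.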

[4] = qHTS assay for identifying genotoxic compounds that show differential cytotoxicity against isogenic chicken DT40 cell lines with known DNA damage response pathways - wild type cell line (AID 743012); conditions: DT40 wild type chicken cells viability, CellTiter-Glo, 40 h; activity change, negative = cytotoxicity: at 68.4 µM (top of the series) unless noted; also: nearly all actives have a fitted effect of over 60% in size
Method in brief: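 Wild-type DT40 cells (300/well) exposed to compounds for 40 hours at 37 C/5% CO2. Viability read by CellTiter-Glo luminescence after 30 min at room temperature.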

[5] = qHTS assay to identify small molecule antagonists of the androgen receptor (AR) signaling pathway using the MDA cell line - cell viability counter screen (AID 743041; also: nearly all actives have a fitted effect of over 45% in size); conditions: MDA-kb2 viability, CellTiter-Fluor, 16 h, cells co-treated with R1881 androgen agonist; viability change, negative = cytotoxic: at 70.3 µM (top of the series)
Method in brief: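 MDA-kb2 AR-luc human breast carcinoma cells (MMTV-luciferase, AR/GR responsive) were treated with compounds plus R1881 agonist for 16 h at 37 °C. Viability was read as CellTiter-Fluor fluorescence in the same wells as the reporter assay.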

[6] = qHTS assay to identify small molecule antagonists of the thyroid receptor (TR) signaling pathway - cell viability counter screen (AID 743064); conditions: GH3.TRE-Luc viability, CellTiter-Fluor, 24 h; activity change, negative = cytotoxic: at 70.3 µM (top of the series) unless noted; also: nearly all actives have a fitted effect of over 50% in size
Method in brief: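 Same-well viability check: GH3.TRE-Luc cells stimulated with 1 nM T3 alongside test compound for 23.5 h, followed by CellTiter-Fluor fluorescence.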

[7] = system: thyroid hormone receptor (rat, GH3 cells); assay: qHTS assay to identify small molecule agonists of the thyroid receptor (TR) signaling pathway (AID 743066; calls by dose curve); conditions: GH3.TRE-Luc cells, TR agonist luciferase, 24 h; activation: at 83.9 µM (top of the series) unless noted
[8] = qHTS assay to identify small molecule antagonists of the estrogen receptor alpha (ER-alpha) signaling pathway - cell viability counter screen (AID 743074; calls by dose curve; also: nearly all actives have a fitted effect of over 45% in size; as to activity, negative = cytotoxicity: % is scaled to controls: 0 for no effect and ±100 for the full control effect)
[9] = molecular target: Estrogen receptor (Homo sapiens) (UniProt P03372); assay: qHTS assay to identify small molecule agonists of the estrogen receptor alpha (ER-alpha) signaling pathway using the BG1 cell line (AID 743079); conditions: BG1Luc4E2 cells, ERE-luciferase agonist, 22 h; activation: at 70.3 µM (top of the series) unless noted; also: nearly all actives have a fitted effect of over 20% in size; as to activation: % is scaled to controls: 0 for no effect and ±100 for the full control effect
[10] = qHTS assay to identify aromatase inhibitors - cell viability counter screen (AID 743084); conditions: MCF-7 aro ERE viability, CellTiter-Fluor, 24 h; activity change, negative = cytotoxicity: at 70.3 µM (top of the series) unless noted;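 also: cells stimulated with testosterone during compound exposure; nearly all actives have a fitted effect of over 55% in size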
[11] = molecular target: Peroxisome proliferator-activated receptor gamma (Homo sapiens) (UniProt P37231); assay: qHTS assay to identify small molecule agonists of the peroxisome proliferator-activated receptor gamma (PPARg) signaling pathway (AID 743094; active = well fitted activation curve with a large enough effect in the signal ratio in the repeat runs, not every such curve was filed as active; inconclusive = weak or mixed curves, or effect the other way; inactive = no such curve, though single readings can be large or run the other way; the % refers to the signal ratio); conditions: HEK293H PPARg-UAS-bla, beta-lactamase FRET ratio, 17 h; activation: at 57 µM (top of the series) unless noted
Method in brief: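 GeneBLAzer PPARg UAS-bla HEK293H cells were plated, rested 5 h, then exposed to compounds for 17 h at 37C. Beta-lactamase activity was read by LiveBLAzer B/G FRET substrate fluorescence after 1 h at room temperature.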

[12] = qHTS assay to identify small molecule phospholipidosis (PLD) inducers (AID 1259344; active = well fitted curve in the direction sought with a large enough effect; inconclusive = small, poorly fitted or top-dose-only effect, or another doubt; inactive = no such curve, though single readings can be large; an effect the other way counts as inactive or inconclusive); conditions: HepG2 phospholipidosis, LipidTOX Red imaging, 24 h; PLD induction: at 38.3 µM (top of the series) unless noted
Method in brief: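 HepG2 cells on collagen I, attached 4 h at 37 C, were co-treated with compound and LipidTOX Red dye for 24 h at 37 C, then fixed with paraformaldehyde plus Hoechst 33342 and imaged by high-content microscopy for phospholipid accumulation.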

[13] = qHTS assay for identifying genotoxic compounds that show differential cytotoxicity against isogenic chicken DT40 cell lines with known DNA damage response pathways - Rev3 mutant cell line (AID 743014); conditions: chicken DT40 Rev3-/- viability, CellTiter-Glo, 40 h; activity, negative = cytotoxicity: at 68.4 µM (top of the series) unless noted; also: nearly all actives have a fitted effect of over 55% in size
[14] = molecular target: Estrogen receptor (Homo sapiens) (UniProt P03372); assay: qHTS assay to identify small molecule antagonists of the estrogen receptor alpha (ER-alpha) signaling pathway (AID 743069; active = well fitted curve in the direction sought with a large enough effect in the signal ratio in the repeat runs, not every such curve was filed as active; inconclusive = weak or mixed curves, or effect the other way; inactive = no such curve, though single readings can be large or run the other way; the % refers to the signal ratio); conditions: HEK293 ER-alpha-UAS-bla, beta-lactamase ratio, antagonist mode; activity, negative = inhibition: at 69.4 µM (top of the series) unless noted
Method in brief: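 HEK293 cells stably carrying an ER-alpha-UAS-bla beta-lactamase reporter were pre-cultured overnight in 2% charcoal-stripped FBS medium. Test compounds in DMSO were added together with 17beta-estradiol for 18 hr at 37C. Read-out was fluorescence after 2 hr with LiveBLAzer B/G FRET substrate at room temperature.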

[15] = qHTS assay to identify small molecule antagonists of the estrogen receptor alpha (ER-alpha) signaling pathway using the BG1 cell line (AID 743080; calls by dose curve;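 also: BG1 cells stimulated with 17beta-estradiol alongside compound; nearly all actives have a fitted effect of over 25% in size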); conditions: BG1Luc4E2 ERE-luciferase antagonist mode, luminescence; activity change, negative = inhibition: at 70.3 µM (top of the series) unless noted
Method in brief: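 After 5 days in phenol-red-free 10% charcoal-stripped FBS medium, BG1-Luc-4E2 cells were seeded, left 24 h at 37 C, co-treated with compounds and 17beta-estradiol for 21.5 h, then assayed for viability and luciferase.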

[16] = ratio activity, negative = MMP loss: at 83.2 µM (top of the series) unless noted
Potency is read from the fitted curve at half-maximal effect; tags tell the direction and shape of the fitted curve or compound fluorescence and quenching.

Sequence of UniProt P03372 (P03372 whole entry, looked up): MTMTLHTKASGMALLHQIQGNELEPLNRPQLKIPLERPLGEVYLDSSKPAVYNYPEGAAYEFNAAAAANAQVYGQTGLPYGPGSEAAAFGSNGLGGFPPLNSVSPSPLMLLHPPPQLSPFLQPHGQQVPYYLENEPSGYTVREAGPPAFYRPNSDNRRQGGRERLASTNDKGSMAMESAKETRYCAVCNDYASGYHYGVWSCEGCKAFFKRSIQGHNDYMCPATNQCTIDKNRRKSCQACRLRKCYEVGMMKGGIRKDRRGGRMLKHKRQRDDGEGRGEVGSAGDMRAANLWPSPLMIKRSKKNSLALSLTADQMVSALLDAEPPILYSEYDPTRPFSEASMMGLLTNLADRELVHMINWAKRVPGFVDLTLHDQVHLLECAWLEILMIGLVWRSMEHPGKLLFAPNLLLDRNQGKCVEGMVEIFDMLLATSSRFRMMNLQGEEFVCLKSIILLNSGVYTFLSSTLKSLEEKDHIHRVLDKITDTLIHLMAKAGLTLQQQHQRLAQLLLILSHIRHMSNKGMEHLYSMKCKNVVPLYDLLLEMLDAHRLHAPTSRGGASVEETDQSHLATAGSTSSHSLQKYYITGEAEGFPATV
Sequence of UniProt P04150 (P04150 whole entry, looked up): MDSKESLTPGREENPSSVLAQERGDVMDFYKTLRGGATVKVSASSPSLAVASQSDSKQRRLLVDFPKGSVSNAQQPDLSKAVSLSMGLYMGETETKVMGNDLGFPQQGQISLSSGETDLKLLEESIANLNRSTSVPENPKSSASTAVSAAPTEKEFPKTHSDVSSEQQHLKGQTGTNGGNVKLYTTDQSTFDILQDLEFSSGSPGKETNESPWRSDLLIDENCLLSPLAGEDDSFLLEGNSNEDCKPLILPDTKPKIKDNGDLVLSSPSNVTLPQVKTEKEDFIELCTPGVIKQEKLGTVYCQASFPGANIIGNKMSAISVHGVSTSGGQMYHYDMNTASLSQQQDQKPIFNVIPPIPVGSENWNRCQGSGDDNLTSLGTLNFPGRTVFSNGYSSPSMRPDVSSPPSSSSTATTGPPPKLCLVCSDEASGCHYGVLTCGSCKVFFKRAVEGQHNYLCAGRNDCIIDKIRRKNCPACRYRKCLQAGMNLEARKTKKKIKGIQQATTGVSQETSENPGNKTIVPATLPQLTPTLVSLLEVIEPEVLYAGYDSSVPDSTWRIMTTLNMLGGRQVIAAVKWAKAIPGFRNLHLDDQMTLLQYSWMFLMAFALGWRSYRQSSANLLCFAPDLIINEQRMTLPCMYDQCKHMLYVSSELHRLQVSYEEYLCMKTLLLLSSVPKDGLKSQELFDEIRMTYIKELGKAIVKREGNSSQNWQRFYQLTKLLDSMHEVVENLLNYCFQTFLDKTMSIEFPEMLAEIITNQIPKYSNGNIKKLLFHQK
Sequence of UniProt P37231 (P37231 whole entry, looked up): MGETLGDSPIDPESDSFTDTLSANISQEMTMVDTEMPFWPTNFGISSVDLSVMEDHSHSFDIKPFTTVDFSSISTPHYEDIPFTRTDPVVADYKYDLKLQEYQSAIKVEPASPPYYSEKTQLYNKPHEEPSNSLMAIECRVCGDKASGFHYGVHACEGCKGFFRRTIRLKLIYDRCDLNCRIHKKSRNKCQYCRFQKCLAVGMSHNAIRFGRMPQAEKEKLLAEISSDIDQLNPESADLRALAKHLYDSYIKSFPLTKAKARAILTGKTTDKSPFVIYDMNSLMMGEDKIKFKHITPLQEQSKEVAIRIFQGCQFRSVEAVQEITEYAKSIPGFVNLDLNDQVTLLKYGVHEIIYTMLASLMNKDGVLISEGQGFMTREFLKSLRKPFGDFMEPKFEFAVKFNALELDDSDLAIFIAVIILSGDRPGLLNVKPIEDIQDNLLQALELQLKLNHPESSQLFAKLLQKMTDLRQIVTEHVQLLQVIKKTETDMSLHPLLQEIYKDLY

Row | SMILES | Potency [1] | Potency [2, 16] | activity change, negative = inhibition [3] | Potency [4] | Potency [5] | Potency [6] | Potency [7] | Potency [8] | Potency [9] | Potency [10] | Potency [11] | Potency [12] | ratio activity, negative = MMP loss ([2]; at 83.2 µM (top of the series)) | ratio activity, negative = MMP loss [2, 16] | Potency [3] | Potency [13] | Potency [14] | activation [9] | Potency [15] | activation [11]
1 | CCc1ccc2c(c1)N(CC(C)CN(C)C)c1ccccc1S2 (configuration not stated) | inconclusive: 33.5 µM [activator] | inconclusive: 5.96 µM [activator, full curve] | inconclusive: -33.3% [inhibitor] | active: 6.68 µM | inconclusive: 27.8 µM [cytotoxic, single point] | active: 11.9 µM | inconclusive: 9.44 µM [inhibitor, partial curve, poor fit] | inactive | inactive | inconclusive: 26.6 µM [cytotoxic, partial curve] | inconclusive: 9.52 µM [inhibitor, partial curve, poor fit] | inconclusive: 3.55 µM [activator, full curve, poor fit] | – | – | – | – | – | – | – | –
2 | CC(C)=CCC/C(C)=C/CC/C(C)=C/CC/C=C(\C)CC/C=C(\C)CCC=C(C)C | inactive | – | – | – | – | inconclusive: 3.35 µM [rising, single point] | – | inconclusive: 10.7 µM [cytotoxic, partial curve, poor fit] | – | – | – | inactive | inactive: 6.29% | inconclusive: 31.5% | inactive | – | – | – | – | –
3 | CO[C@@H]1[C@@H](O[C@@H]2O[C@H](C)[C@@H](O[C@H]3C[C@@](C)(O)[C@@H](OC(=O)CC(C)C)[C@H](C)O3)[C@H](N(C)C)[C@H]2O)[C@@H](CC=O)C[C@@H](C)[C@@H](O)/C=C/C=C/C[C@@H](C)OC(=O)C[C@H]1O | inactive | inactive | – | – | – | inconclusive: 4.22 µM [rising, partial curve, poor fit] | – | inconclusive: 30.1 µM [rising, single point] | active: 13.3 µM | inconclusive: 29.8 µM [cytotoxic, partial curve] | – | inactive and inconclusive: 17.8 µM [activator, single point] | – | – | inconclusive: 12 µM [activator, partial curve] | active: 5.96 µM and active: 7.5 µM | inconclusive: 0.674 µM [activator, full curve] | inconclusive: 6.84% [phenotype inactive] | inconclusive: 2.98 µM [rising, full curve] | inconclusive: -10%
